Measurements: the supplement of paper PMC8728848
This is one part of the list.

Columns and labels:
Experiment in all cases: glycan array binding signal (z-score within array); higher = stronger binding
Conditions in all cases: glycan notation: IUPAC condensed, linker removed; mutation: N224Q
[1] = biological target: Fuc(a1-2)[Gal(a1-3)]Gal(b1-4)GlcNAc(b1-2)Man(a1-3)[Fuc(a1-2)[Gal(a1-3)]Gal(b1-4)GlcNAc(b1-2)Man(a1-6)]Man(b1-4)GlcNAc(b1-4)GlcNAc
Outline: (§1)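 Glycan array data were curated from 3228 arrays in the Consortium for Functional Glycomics database and kept only where the protein sequence was available. Glycan names were converted to IUPAC-condensed notation, and columns mapping to the same glycan were averaged. The binding signal is a within-array Z-score, averaged across arrays of the same protein sequence at different concentrations or buffers and across linkers. Negative Z-scores can be read as non-binding.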

[2] = biological target: Fuc(a1-2)[Gal(a1-3)]Gal(b1-4)GlcNAc(b1-2)Man(a1-3)[Fuc(a1-2)[Gal(a1-3)]Gal(b1-4)GlcNAc(b1-2)Man(a1-6)]Man(b1-4)GlcNAc(b1-4)[Fuc(a1-6)]GlcNAc
Outline: as §1

[3] = biological target: Fuc(a1-2)[Gal(a1-3)]Gal(b1-4)GlcNAc(b1-3)GalNAc
Outline: as §1

[4] = biological target: Fuc(a1-2)[Gal(a1-3)]Gal(b1-4)GlcNAc(b1-3)[Fuc(a1-2)[Gal(a1-3)]Gal(b1-4)GlcNAc(b1-6)]GalNAc
Outline: as §1

[5] = biological target: Fuc(a1-2)[Gal(a1-3)]Gal(b1-4)GlcNAc(b1-6)GalNAc
Outline: as §1

[6] = biological target: Fuc(a1-2)[Gal(a1-3)]Gal(b1-4)[Fuc(a1-3)]Glc
Outline: as §1

[7] = biological target: Fuc(a1-2)[Gal(a1-3)]Gal(b1-4)[Fuc(a1-3)]GlcNAc
Outline: as §1

[8] = biological target: Fuc(a1-2)[Gal(a1-3)]Gal(b1-4)[Fuc(a1-3)]GlcNAc(b1-3)GalNAc
Outline: as §1

[9] = biological target: Fuc(a1-2)[Gal(a1-4)]Gal(b1-4)GlcNAc
Outline: as §1

[10] = biological target: Fuc(a1-2)[GalNAc(a1-3)]Gal
Outline: as §1

[11] = biological target: Fuc(a1-2)[GalNAc(a1-3)]Gal(b1-3)GalNAc(a1-3)[Fuc(a1-2)]Gal(b1-4)GlcNAc
Outline: as §1

[12] = biological target: Fuc(a1-2)[GalNAc(a1-3)]Gal(b1-3)GalNAc(b1-3)Gal(a1-4)Gal(b1-4)Glc
Outline: as §1

[13] = biological target: Fuc(a1-2)[GalNAc(a1-3)]Gal(b1-3)GlcNAc
Outline: as §1

[14] = biological target: Fuc(a1-2)[GalNAc(a1-3)]Gal(b1-3)GlcNAc(b1-2)Man(a1-3)[Fuc(a1-2)[GalNAc(a1-3)]Gal(b1-3)GlcNAc(b1-2)Man(a1-6)]Man(b1-4)GlcNAc(b1-4)GlcNAc
Outline: as §1

[15] = biological target: Fuc(a1-2)[GalNAc(a1-3)]Gal(b1-3)GlcNAc(b1-2)Man(a1-3)[Fuc(a1-2)[GalNAc(a1-3)]Gal(b1-3)GlcNAc(b1-2)Man(a1-6)]Man(b1-4)GlcNAc(b1-4)[Fuc(a1-6)]GlcNAc
Outline: as §1

[16] = biological target: Fuc(a1-2)[GalNAc(a1-3)]Gal(b1-3)GlcNAc(b1-3)GalNAc
Outline: as §1

[17] = biological target: Fuc(a1-2)[GalNAc(a1-3)]Gal(b1-3)GlcNAc(b1-6)GalNAc
Outline: as §1

[18] = biological target: Fuc(a1-2)[GalNAc(a1-3)]Gal(b1-4)Glc
Outline: as §1

[19] = biological target: Fuc(a1-2)[GalNAc(a1-3)]Gal(b1-4)GlcNAc
Outline: as §1

[20] = biological target: Fuc(a1-2)[GalNAc(a1-3)]Gal(b1-4)GlcNAc(b1-2)Man
Outline: as §1

[21] = biological target: Fuc(a1-2)[GalNAc(a1-3)]Gal(b1-4)GlcNAc(b1-2)Man(a1-3)[Fuc(a1-2)[GalNAc(a1-3)]Gal(b1-4)GlcNAc(b1-2)Man(a1-6)]Man(b1-4)GlcNAc(b1-4)GlcNAc
Outline: as §1

[22] = biological target: Fuc(a1-2)[GalNAc(a1-3)]Gal(b1-4)GlcNAc(b1-2)Man(a1-3)[Fuc(a1-2)[GalNAc(a1-3)]Gal(b1-4)GlcNAc(b1-2)Man(a1-6)]Man(b1-4)GlcNAc(b1-4)[Fuc(a1-6)]GlcNAc
Outline: as §1

[23] = biological target: Fuc(a1-2)[GalNAc(a1-3)]Gal(b1-4)GlcNAc(b1-3)Gal(b1-4)GlcNAc
Outline: as §1

[24] = biological target: Fuc(a1-2)[GalNAc(a1-3)]Gal(b1-4)GlcNAc(b1-3)Gal(b1-4)GlcNAc(b1-3)Gal(b1-4)GlcNAc
Outline: as §1

[25] = biological target: Fuc(a1-2)[GalNAc(a1-3)]Gal(b1-4)GlcNAc(b1-3)GalNAc
Outline: as §1

[26] = biological target: Fuc(a1-2)[GalNAc(a1-3)]Gal(b1-4)GlcNAc(b1-3)[Fuc(a1-2)[GalNAc(a1-3)]Gal(b1-4)GlcNAc(b1-6)]GalNAc
Outline: as §1

[27] = biological target: Fuc(a1-2)[GalNAc(a1-3)]Gal(b1-4)GlcNAc(b1-6)GalNAc
Outline: as §1

[28] = biological target: Fuc(a1-2)[GalNAc(a1-3)]Gal(b1-4)[Fuc(a1-3)]GlcNAc
Outline: as §1

[29] = biological target: Fuc(a1-2)[GalNAc(a1-3)]Gal(b1-4)[Fuc(a1-3)]GlcNAc(b1-3)GalNAc
Outline: as §1

[30] = biological target: Fuc(a1-2)[GalNAc(a1-4)]Gal(b1-4)GlcNAc
Outline: as §1

[31] = biological target: Fuc(a1-2)[GalNAc(b1-3)]Gal
Outline: as §1

[32] = biological target: Fuc(a1-3)GlcNAc
Outline: as §1

[33] = biological target: Fuc(a1-3)[Gal(b1-4)]Glc6S
Outline: as §1

[34] = biological target: Fuc(a1-3)[Gal(b1-4)]GlcNAc
Outline: as §1

[35] = biological target: Fuc(a1-3)[Gal(b1-4)]GlcNAc(b1-2)Man
Outline: as §1

[36] = biological target: Fuc(a1-3)[Gal(b1-4)]GlcNAc(b1-2)Man(a1-3)[Fuc(a1-3)[Gal(b1-4)]GlcNAc(b1-2)Man(a1-6)]Man(b1-4)GlcNAc(b1-4)GlcNAc
Outline: as §1

[37] = biological target: Fuc(a1-3)[Gal(b1-4)]GlcNAc(b1-2)Man(a1-3)[Fuc(a1-3)[Gal(b1-4)]GlcNAc(b1-2)Man(a1-6)]Man(b1-4)GlcNAc(b1-4)[Fuc(a1-6)]GlcNAc
Outline: as §1

B1: AAL (Aleuria aurantia) (protein)
chain: MPTEFLYTSKIAAISWAATGGRQQRVYFQDLNGKIREAQRGGDNPWTGGSSQNVIGEAKLFSPLAAVTWKSAQGIQIRVYCVNKDNILSEFVYDGSKWITGQLGSVGVKVGSNSKLAALQWGGSESAPPNIRVYYQKSNGSGSSIHEYVWSGKWTAGASFGSTVPGTGIGATAIGPGRLRIYYQATDNKIREHCWDSNSWYVGGFSASASAGVSIAAISWGSTPQIRVYWQKGREELYEAAYGGSWNTPGQIKDASRPTPSLPDTFIAANSSGNIDISVFFQASGVSLQQWQWISGKGWSIGAVVPTGTPAGW
Question: How did the “glycan array binding signal (z-score)” value [1] turn out when B1 was run?
Answer: -0.306

Question: And the “glycan array binding signal (z-score)” value [2]?
Answer: -0.153

Question: And the “glycan array binding signal (z-score)” value [3]?
Answer: -0.314

Question: What about the “glycan array binding signal (z-score)” value [4] of the same binder?
Answer: -0.296

Question: What about the “glycan array binding signal (z-score)” value [5] of the same binder?
Answer: -0.294

Question: What about the “glycan array binding signal (z-score)” value [6] of the same binder?
Answer: -0.267

Question: What about the “glycan array binding signal (z-score)” value [7] of the same binder?
Answer: -0.289

Question: What about the “glycan array binding signal (z-score)” value [8] of the same binder?
Answer: -0.295

Question: And the “glycan array binding signal (z-score)” value [9]?
Answer: 5.8

Question: And the “glycan array binding signal (z-score)” value [10]?
Answer: 0.989

Question: What about the “glycan array binding signal (z-score)” value [11] of the same binder?
Answer: -0.313

Question: What about the “glycan array binding signal (z-score)” value [12] of the same binder?
Answer: -0.298

Question: What about the “glycan array binding signal (z-score)” value [13] of the same binder?
Answer: -0.31

Question: What about the “glycan array binding signal (z-score)” value [14] of the same binder?
Answer: -0.303

Question: And the “glycan array binding signal (z-score)” value [15]?
Answer: -0.247

Question: What about the “glycan array binding signal (z-score)” value [16] of the same binder?
Answer: -0.266

Question: And the “glycan array binding signal (z-score)” value [17]?
Answer: -0.313

Question: And the “glycan array binding signal (z-score)” value [18]?
Answer: -0.309

Question: And the “glycan array binding signal (z-score)” value [19]?
Answer: -0.304

Question: And the “glycan array binding signal (z-score)” value [20]?
Answer: -0.305

Question: And the “glycan array binding signal (z-score)” value [21]?
Answer: -0.299

Question: What about the “glycan array binding signal (z-score)” value [22] of the same binder?
Answer: -0.267

Question: What about the “glycan array binding signal (z-score)” value [23] of the same binder?
Answer: -0.281

Question: What about the “glycan array binding signal (z-score)” value [24] of the same binder?
Answer: -0.288

Question: And the “glycan array binding signal (z-score)” value [25]?
Answer: -0.32

Question: And the “glycan array binding signal (z-score)” value [26]?
Answer: -0.312

Question: And the “glycan array binding signal (z-score)” value [27]?
Answer: -0.301

Question: And the “glycan array binding signal (z-score)” value [28]?
Answer: -0.286

Question: And the “glycan array binding signal (z-score)” value [29]?
Answer: -0.27

Question: What about the “glycan array binding signal (z-score)” value [30] of the same binder?
Answer: 5.38

Question: And the “glycan array binding signal (z-score)” value [31]?
Answer: -0.028

Question: What about the “glycan array binding signal (z-score)” value [32] of the same binder?
Answer: 3.92

Question: And the “glycan array binding signal (z-score)” value [33]?
Answer: -0.293

Question: What about the “glycan array binding signal (z-score)” value [34] of the same binder?
Answer: 0.827

Question: And the “glycan array binding signal (z-score)” value [35]?
Answer: -0.29

Question: And the “glycan array binding signal (z-score)” value [36]?
Answer: -0.189

Question: And the “glycan array binding signal (z-score)” value [37]?
Answer: -0.264
